In all, about 310,000 compounds went through this assay and about 2,200 (0.71%) showed an effect of 50% or more. Effects have a minus sign here. This is one part of the list.
Each compound was assayed against human ether-à-go-go-related gene (hERG) potassium channel (human, UniProt Q12809) (assay: primary screen, population patch clamp on CHO cells stably expressing hERG).
Chain of human ether-à-go-go-related gene (hERG) potassium channel (Q12809 whole entry, looked up): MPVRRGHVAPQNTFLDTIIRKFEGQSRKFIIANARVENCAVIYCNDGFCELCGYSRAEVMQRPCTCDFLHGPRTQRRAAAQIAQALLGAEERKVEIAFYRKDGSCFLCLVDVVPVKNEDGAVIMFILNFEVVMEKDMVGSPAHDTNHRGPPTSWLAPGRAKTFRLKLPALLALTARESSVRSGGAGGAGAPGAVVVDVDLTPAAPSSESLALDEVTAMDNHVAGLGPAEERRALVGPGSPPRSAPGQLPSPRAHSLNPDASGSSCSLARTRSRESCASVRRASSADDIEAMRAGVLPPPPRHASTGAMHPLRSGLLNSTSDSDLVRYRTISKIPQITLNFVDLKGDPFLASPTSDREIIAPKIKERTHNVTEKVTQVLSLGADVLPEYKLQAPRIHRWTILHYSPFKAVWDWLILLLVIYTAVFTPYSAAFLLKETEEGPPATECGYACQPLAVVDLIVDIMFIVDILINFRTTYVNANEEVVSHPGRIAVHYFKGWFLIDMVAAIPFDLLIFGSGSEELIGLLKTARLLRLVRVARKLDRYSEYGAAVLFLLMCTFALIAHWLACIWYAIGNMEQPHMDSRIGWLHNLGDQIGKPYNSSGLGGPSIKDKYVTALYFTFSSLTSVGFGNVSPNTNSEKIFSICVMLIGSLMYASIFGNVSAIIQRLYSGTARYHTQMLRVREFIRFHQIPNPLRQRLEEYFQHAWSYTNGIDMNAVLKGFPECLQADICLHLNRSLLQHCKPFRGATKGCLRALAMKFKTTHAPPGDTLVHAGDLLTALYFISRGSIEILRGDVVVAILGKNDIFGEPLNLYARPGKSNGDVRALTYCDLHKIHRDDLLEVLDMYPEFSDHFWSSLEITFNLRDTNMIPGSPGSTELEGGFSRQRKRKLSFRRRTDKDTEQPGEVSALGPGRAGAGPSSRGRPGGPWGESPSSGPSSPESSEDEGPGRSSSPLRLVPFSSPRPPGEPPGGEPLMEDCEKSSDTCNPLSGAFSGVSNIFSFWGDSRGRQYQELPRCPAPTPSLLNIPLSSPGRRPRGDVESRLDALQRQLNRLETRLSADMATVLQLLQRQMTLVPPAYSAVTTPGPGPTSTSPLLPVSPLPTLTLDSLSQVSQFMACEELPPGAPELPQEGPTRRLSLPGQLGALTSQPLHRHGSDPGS

SMILES	hERG current change (%, negative = inhibition) at 1uM
COc1ccc(C2=CC(c3ccc(C)cc3)n3nnnc3N2)cc1 (centres unmarked)	-16.9%
COc1ccc(-c2coc3cc(OC4OC(CO)C(O)C(O)C4O)ccc3c2=O)cc1 (centres unmarked)	6.45%
Nc1ccccc1C(=O)Nc1cccc2ccccc12	13.4%
COc1ccc(N(CC(=O)NC2CCCCC2)C(=O)CCC(=O)Nc2nc(C)cs2)cc1OC	8.54%
CC(NC(=O)c1ccc(F)cc1)c1ccc(F)cc1 (centres unmarked)	-5.09%
O=C(NCc1ccccn1)c1ccc(-c2ccccc2)cc1	12.9%
COC(=O)c1ccc(C)c(NS(=O)(=O)c2ccc(NC(C)=O)cc2)c1	4.87%
O=C(Nc1ccc2c(c1)C(=O)OC2)c1ccc(Cl)cc1Cl	3.09%
O=C(Cn1cnc2ccccc2c1=O)NCCC(=O)N1CCC2(CC1)OCCO2	15.6%
Cc1ccc(NS(=O)(=O)c2ccc(-c3ccc(=O)[nH]n3)o2)cc1N(C)C	2.08%
Cc1ccc(NC(=O)CCC(=O)N/N=C/c2cccnc2)cc1	10.5%
CCCCNC(=O)NS(=O)(=O)c1ccc(C)cc1	12%
COc1ccccc1OCC(=O)NCC1CCCN(Cc2cnn(C(C)C)c2)C1 (centres unmarked)	14.6%
Cc1cc(C)nc(SCC(=O)NNC(=O)c2ccccc2C)n1	7.91%
CSc1c(SCc2ccccc2)cnn(Cc2ccccc2)c1=O	0.464%
Cn1nnnc1NCc1cccc(Cl)c1Cl	7.72%
CN(C(=O)c1cnccn1)c1nnc(-c2cnccn2)s1	14.8%
Cc1cccc(C)c1NC(=O)Cn1cc(C=O)c2ccccc21	14.3%
O=S(=O)(NCC1CCCO1)c1cccc(C(F)(F)F)c1 (centres unmarked)	3.89%
Cc1cccc(C)c1NC(=O)CN1CCN(C(=O)CNC(=O)c2ccc(N3CCCC3=O)cc2)CC1	11.2%
COc1cc(NC(=O)c2cccc(F)c2)cc(OC)c1OC	13.7%
COc1ccc(Oc2cnc3ccccc3n2)cc1	13.7%

SMILES	hERG current change (%, negative = inhibition) at 1uM
CC[n+]1ccc(/C=C/c2c[nH]c3ccccc23)cc1.[Cl-]	5.01%
Cc1cccc(N2CCN(C(=O)c3ccc4nc[nH]c4c3)CC2)c1C	-1.36%
CN1CCc2c(sc3nc(SCC(N)=O)n(-c4ccc(Cl)cc4)c(=O)c23)C1	8.97%
COc1ccc(OC)c(-c2cc(C(=O)NCc3ccco3)no2)c1	0.616%
Nc1ccc(-c2nc3ccc(N)cc3[nH]2)cc1	8.84%
COc1ccccc1CNC(=O)CN(C)S(=O)(=O)c1ccc(Br)s1	4.61%
O=C(N/N=C/c1cccc(OC(=O)c2cccc(Br)c2)c1)c1ccncc1	6.45%
C=CCOc1c(CNn2nnnc2N)cccc1OC	6.29%
NC(=S)N/N=C/c1cc([N+](=O)[O-])ccc1OCCOc1ccccc1	6.76%
CC(=O)Nc1cccc(NC(=O)CSc2ncc(-c3ccc(Cl)cc3)n2Cc2ccco2)c1	2.89%
O=C(CN1C(=O)COc2ccccc21)NCCCN1CCN(c2ccccc2F)CC1	6.87%
C/C(CC(=O)NC(C)C)=N\NC(=O)C(c1ccccc1)c1ccccc1	1.17%
CCN1C(=O)N/C(=C/c2cc(C)n(Cc3ccccc3)c2C)C1=O	8.98%
CC1CC(C)CN(C(=O)C2CCN(S(=O)(=O)c3cccc4cccnc34)CC2)C1 (centres unmarked)	12.5%
O=C(Nc1cccnc1)c1cn(-c2ccccc2)nc1-c1cccs1	10.1%
O=C(N/N=C/c1ccncc1)c1nc2ccccc2c(=O)[nH]1	11.9%
COc1cc(OC)c2ccc(=O)oc2c1C(CC(=O)N1CCOCC1)c1ccc(N(C)C)cc1 (centres unmarked)	21.8%
COc1cccc2c1SCc1ccccc1C2CC(N)=O (centres unmarked)	11.6%
OC1=C(O)c2nc3ccccc3nc21	1.65%
CCOc1ccc(CCNC(=O)CCc2nnc3ccc(N4CCOCC4)nn23)cc1OCC	7.73%
O=C(CNC(=O)c1ccc(S(=O)(=O)N2CCCC2)cc1)N/N=C/c1ccc(Cl)cc1Cl	3.52%
Cc1ccc2c(c1)cc(CN(Cc1cccs1)C(=O)c1ccco1)c1nnnn12	1.11%
